# Reference: the BET-seq Pho4 binding data (Le et al. 2018)
# This is one part of the list. Values were computed here from the reads of four pooled replicates and scatter widely.
# Target: T1, Pho4 (S. cerevisiae) (UniProt P07270)
# T1 sequence: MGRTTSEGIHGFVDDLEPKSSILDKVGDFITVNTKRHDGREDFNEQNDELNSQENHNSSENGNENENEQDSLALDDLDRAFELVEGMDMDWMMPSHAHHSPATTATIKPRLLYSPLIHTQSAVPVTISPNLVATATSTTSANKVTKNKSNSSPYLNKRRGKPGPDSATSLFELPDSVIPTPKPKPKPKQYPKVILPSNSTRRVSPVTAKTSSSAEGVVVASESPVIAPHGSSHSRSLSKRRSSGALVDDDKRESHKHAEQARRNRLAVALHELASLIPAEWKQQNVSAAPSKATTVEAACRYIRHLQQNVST
# Experiment: relative binding free energy (BET-seq); higher = weaker binding
# Settings: reference: library average
row,Sequence,relative binding free energy
1,TGGCTCACGTGAGTAG,0.34 kcal/mol
2,TGCAGCACGTGGTAAG,-0.19 kcal/mol
3,GGTCTCACGTGCTTGG,0.24 kcal/mol
4,GGTTTCACGTGAGTCG,0.38 kcal/mol
5,CTTAGCACGTGGCGTT,-0.15 kcal/mol
6,TGCGGCACGTGCCGGG,-0.12 kcal/mol
7,GTGGTCACGTGGACTA,0.21 kcal/mol
8,TGTTACACGTGAACGT,0.22 kcal/mol
9,ATTTTCACGTGGATGA,0.14 kcal/mol
10,TTGATCACGTGAATGC,0.52 kcal/mol
11,AAATGCACGTGATTTT,0.16 kcal/mol
12,TTTGACACGTGGGCCT,-0.05 kcal/mol
13,TCGGGCACGTGTAGTT,0 kcal/mol
14,AGGTTCACGTGTGTAT,0.19 kcal/mol
15,TTTGGCACGTGCAATT,-0.01 kcal/mol
16,ACTGGCACGTGTTGTC,0.04 kcal/mol
17,TTTGACACGTGGTCTC,-0.07 kcal/mol
18,GGTGACACGTGTAGGA,0.05 kcal/mol
19,GTGGTCACGTGAACGT,0.2 kcal/mol
20,AGGGACACGTGAAAGT,0.21 kcal/mol
21,GGTCTCACGTGTGTTC,0.25 kcal/mol
22,TTAGTCACGTGAGCGT,0.27 kcal/mol
23,TAGGGCACGTGCAGGC,-0.11 kcal/mol
24,GTTCCCACGTGGTGGT,-0.13 kcal/mol
25,AGATGCACGTGTTGCA,0.06 kcal/mol
26,TTGCACACGTGTTGTT,0.08 kcal/mol

row,Sequence,relative binding free energy
1,TGTTGCACGTGGAGTC,0.04 kcal/mol
2,TGACGCACGTGTCTGG,-0.07 kcal/mol
3,CGAGTCACGTGTGAGG,0.04 kcal/mol
4,GGAGACACGTGGTGTG,-0.05 kcal/mol
5,AGCAGCACGTGGTGGC,-0.16 kcal/mol
6,GCGTTCACGTGTTGCT,0.28 kcal/mol
7,ATTGGCACGTGGTTAC,-0.24 kcal/mol
8,TGGGTCACGTGCGTGG,0.06 kcal/mol
9,TCTGTCACGTGGGAGG,0.03 kcal/mol
10,CGTGGCACGTGAGGGT,0.09 kcal/mol
11,CCGTGCACGTGGGGGT,-0.31 kcal/mol
12,TTATTCACGTGGTTTT,0.26 kcal/mol
13,TGAGTCACGTGGACAT,0.05 kcal/mol
14,ATAATCACGTGGGGTC,0.07 kcal/mol
15,GAGGTCACGTGGGTGA,0.04 kcal/mol
16,AAGTGCACGTGGAGCG,-0.17 kcal/mol
17,AGTATCACGTGGGGTT,0 kcal/mol
18,CTGGGCACGTGCGGTA,-0.3 kcal/mol
19,TGTTTCACGTGCTAAG,0.23 kcal/mol
20,ATTTCCACGTGTGGTG,0.14 kcal/mol
21,TATATCACGTGTACGG,0.34 kcal/mol
22,TAGCGCACGTGTTGTG,-0.11 kcal/mol
23,ATCGGCACGTGTTAAG,-0.01 kcal/mol
24,TAACTCACGTGGGTAT,0.12 kcal/mol
25,TTTAACACGTGATATA,0.08 kcal/mol
26,CAAGTCACGTGTGGTT,0.2 kcal/mol

row,Sequence,relative binding free energy
1,GGGGCCACGTGGCGGT,-0.12 kcal/mol
2,GGACTCACGTGATGTT,0.27 kcal/mol
3,TCAAGCACGTGTCGGG,0.09 kcal/mol
4,TGCTTCACGTGATTTT,0.33 kcal/mol
5,ATATACACGTGAATTT,0.13 kcal/mol
6,GTAGTCACGTGGACTT,0.25 kcal/mol
7,GGTAGCACGTGCTTTG,-0.06 kcal/mol
8,TGGCACACGTGTGTAA,0.1 kcal/mol
9,TATAACACGTGCGGGG,-0.12 kcal/mol
10,TAATTCACGTGACGTG,0.29 kcal/mol
11,ATTTGCACGTGACTGG,0.18 kcal/mol
12,AGCATCACGTGGGGCG,0 kcal/mol
13,GGGGACACGTGTGTGG,0.12 kcal/mol
14,ATATACACGTGCGTGT,-0.11 kcal/mol
15,CTTTACACGTGTTTGT,0.03 kcal/mol
16,TGACGCACGTGCTGGG,-0.15 kcal/mol
17,TCGGTCACGTGCGGGG,0.08 kcal/mol
18,GGACACACGTGTGGAG,0.22 kcal/mol
19,TATCGCACGTGGGGGG,-0.19 kcal/mol
20,GTTGGCACGTGGCTAA,-0.12 kcal/mol
21,TGCTACACGTGGTGGA,0.09 kcal/mol
22,ATGTGCACGTGACCGG,0.14 kcal/mol
23,AGTTACACGTGGTGGG,0.18 kcal/mol
24,GGTGGCACGTGAGTCG,0.1 kcal/mol
25,CGGATCACGTGGTATA,0.23 kcal/mol
26,ATTGGCACGTGGGTAG,-0.19 kcal/mol

row,Sequence,relative binding free energy
1,GTAAGCACGTGAGCGT,0.23 kcal/mol
2,CATGTCACGTGTTAGG,0.18 kcal/mol
3,GTCTACACGTGTGTGG,0.13 kcal/mol
4,TAGGGCACGTGAGGAC,0.06 kcal/mol
5,ATCAGCACGTGTGGTG,-0.11 kcal/mol
6,GTGTTCACGTGGCAAG,0.27 kcal/mol
7,GGGCGCACGTGGAAGG,0.05 kcal/mol
8,AGCGTCACGTGGTACG,0.1 kcal/mol
9,GGGCGCACGTGTAGGT,0.01 kcal/mol
10,TCTTGCACGTGTTTGC,-0.04 kcal/mol
11,TCAGGCACGTGGGTTA,-0.13 kcal/mol
12,GATTTCACGTGGGTAC,0.22 kcal/mol
13,GTACGCACGTGTAAGT,0.05 kcal/mol
14,CGGGGCACGTGCTGAT,-0.13 kcal/mol
15,TTATACACGTGGAGGT,-0.06 kcal/mol
16,GGGCTCACGTGGAGAG,0.24 kcal/mol
17,AGAGGCACGTGGGGTC,-0.08 kcal/mol
18,CTCTTCACGTGTTTTG,0.31 kcal/mol
19,GGGATCACGTGCTTGG,0.12 kcal/mol
20,GTGAGCACGTGTAGCG,-0.05 kcal/mol
21,AATGTCACGTGTTCGT,0.09 kcal/mol
22,TTTTTCACGTGGAACG,0.33 kcal/mol
23,GTTTACACGTGAGGAA,0.25 kcal/mol
24,AATGTCACGTGCTGTG,0.12 kcal/mol
25,AAAGTCACGTGAGCGG,0.49 kcal/mol
26,TAGATCACGTGATTGG,0.25 kcal/mol

row,Sequence,relative binding free energy
1,TATTGCACGTGTTAAG,0.02 kcal/mol
2,AGGGACACGTGTCGTA,-0.08 kcal/mol
3,GTTAGCACGTGTTGAT,-0.06 kcal/mol
4,GTTTGCACGTGGAAAA,0.14 kcal/mol
5,GTTCACACGTGTTTAG,0.11 kcal/mol
6,TGAATCACGTGTATGG,0.08 kcal/mol
7,GGGCACACGTGGGCGG,-0.12 kcal/mol
8,TTGGTCACGTGTAGCT,0.28 kcal/mol
9,GACGTCACGTGGTAGT,0.01 kcal/mol
10,AGATTCACGTGATTGG,0.27 kcal/mol
11,GCGAACACGTGGGATG,0.04 kcal/mol
12,TGATGCACGTGGATCT,-0.05 kcal/mol
13,TATAACACGTGGGGAG,0.07 kcal/mol
14,GTTTTCACGTGCGTTC,0.28 kcal/mol
15,GAAGACACGTGTAGTG,0.03 kcal/mol
16,AGAGGCACGTGTCTGG,-0.11 kcal/mol
17,GGGTTCACGTGTTGTA,0.34 kcal/mol
18,ATAGACACGTGTTATG,-0.09 kcal/mol
19,TTCGTCACGTGGGTTT,0.05 kcal/mol
20,ATTAACACGTGTGCTA,0.05 kcal/mol
21,GGTATCACGTGCGCTT,0.1 kcal/mol
22,TTTGACACGTGGGTCG,-0.1 kcal/mol
23,AGATTCACGTGGGCTT,0.15 kcal/mol
24,TGGTTCACGTGGACGA,0.22 kcal/mol
25,TGGGGCACGTGACACG,-0.09 kcal/mol
26,CGGTGCACGTGGTTAA,-0.19 kcal/mol

row,Sequence,relative binding free energy
1,TGTGGCACGTGGGTGG,-0.11 kcal/mol
2,ACGGCCACGTGTTTGG,0 kcal/mol
3,TAGTTCACGTGTGTGC,0.29 kcal/mol
4,ATAGTCACGTGTGCTA,0.08 kcal/mol
5,AATTTCACGTGTCTTG,0.3 kcal/mol
6,GTGTACACGTGTGTTC,0.05 kcal/mol
7,TTGGGCACGTGTCAGG,-0.13 kcal/mol
8,GTAGGCACGTGTTAGG,-0.02 kcal/mol
9,CGGTTCACGTGCGTTG,0.31 kcal/mol
10,TTTGTCACGTGCATTG,0.01 kcal/mol
11,TCGGCCACGTGAGAGG,0.21 kcal/mol
12,CATCGCACGTGGTGGT,-0.19 kcal/mol
13,CTTTACACGTGAGTTG,0.34 kcal/mol
14,CGTGTCACGTGTGTAT,0.01 kcal/mol
15,GGTTACACGTGGTATC,0.12 kcal/mol
16,CCGGTCACGTGGTAGT,0.03 kcal/mol
17,GGTGTCACGTGTAAGG,0.19 kcal/mol
18,AGACTCACGTGTTATG,0.29 kcal/mol
19,TACTTCACGTGTCGTT,0.2 kcal/mol
20,TTCAACACGTGTGGAT,0.21 kcal/mol
21,GTTGGCACGTGATGTA,0.06 kcal/mol
22,CGGCGCACGTGGGGTT,-0.31 kcal/mol
23,GGGGGCACGTGTGGGA,0.01 kcal/mol
24,GTATCCACGTGGGGGA,-0.1 kcal/mol
25,TGTTTCACGTGGAGCA,0.24 kcal/mol
26,GATACCACGTGGGGGG,-0.27 kcal/mol

row,Sequence,relative binding free energy
1,AAGAACACGTGTAGTT,0.21 kcal/mol
2,TGCTGCACGTGATGAT,0.01 kcal/mol
3,TATATCACGTGTACGT,0.13 kcal/mol
4,AGGGTCACGTGAAAGA,0.18 kcal/mol
5,AGGTACACGTGTATTG,0.06 kcal/mol
6,TCAGGCACGTGTTAAG,-0.01 kcal/mol
7,TGTTGCACGTGATCGT,0.01 kcal/mol
8,CGGGTCACGTGGGAGG,0.04 kcal/mol
9,AGCTGCACGTGGGAGT,-0.12 kcal/mol
10,CGGATCACGTGTGCGT,0.1 kcal/mol
11,GTAGACACGTGGGTCG,-0.06 kcal/mol
12,ACAATCACGTGATGGT,0.28 kcal/mol
13,GTGAGCACGTGTTTTT,0.02 kcal/mol
14,GGGGGCACGTGTTCGG,-0.01 kcal/mol
15,TTATCCACGTGGGGGT,-0.14 kcal/mol
16,TGGGCCACGTGTGTTT,0.08 kcal/mol
17,CGATTCACGTGGGGGT,0.13 kcal/mol
18,TTGCCCACGTGGTGGG,-0.2 kcal/mol
19,ATGTACACGTGGCGGC,-0.01 kcal/mol
20,GAATTCACGTGGGTAG,0.14 kcal/mol
21,CTGAACACGTGTTTAT,0.24 kcal/mol
22,CGGGTCACGTGTCTTT,0.12 kcal/mol
23,GTTCGCACGTGAATTT,0.39 kcal/mol
24,CAGTACACGTGGTGGG,-0.02 kcal/mol
25,AGTTGCACGTGTTGAA,0.18 kcal/mol
26,GTTGGCACGTGTGGCG,0.03 kcal/mol

row,Sequence,relative binding free energy
1,GGGAGCACGTGAGAGC,0.2 kcal/mol
2,GATTGCACGTGCGCGT,-0.06 kcal/mol
3,GAGGCCACGTGGGTTA,-0.12 kcal/mol
4,TGAGGCACGTGGTAGG,-0.31 kcal/mol
5,ATTCGCACGTGAATTG,0.25 kcal/mol
6,TGGGCCACGTGGGAAT,-0.26 kcal/mol
7,TACTTCACGTGATAGG,0.38 kcal/mol
8,GAGGCCACGTGAGGGC,0.2 kcal/mol
9,CCGGGCACGTGGTTGT,-0.32 kcal/mol
10,GTGTGCACGTGCGCGT,-0.2 kcal/mol
11,ATGAGCACGTGGTAAG,-0.16 kcal/mol
12,TTTACCACGTGATTTA,0.16 kcal/mol
13,ACTGTCACGTGGTGTT,0.06 kcal/mol
14,TGCGTCACGTGGGGAC,-0.04 kcal/mol
15,TGACGCACGTGTAGGC,0.04 kcal/mol
16,TTTTTCACGTGATGAC,0.35 kcal/mol
17,AAGTGCACGTGAGTGT,0.14 kcal/mol
18,TGTGACACGTGTTCAT,0.01 kcal/mol
19,GGCGACACGTGCGGTG,-0.06 kcal/mol
20,GTTGCCACGTGGTTCT,0.03 kcal/mol
21,GCATGCACGTGGGCGG,-0.22 kcal/mol
22,CCTGGCACGTGGGTGG,-0.2 kcal/mol
23,TCTGTCACGTGTTTGC,-0.04 kcal/mol
24,GTAATCACGTGGGATC,0.12 kcal/mol
25,TAACGCACGTGCGGTT,-0.06 kcal/mol
26,TTGGACACGTGGTCTA,-0.09 kcal/mol

row,Sequence,relative binding free energy
1,AGCGACACGTGTGTTG,-0.09 kcal/mol
2,CGGGTCACGTGTGGGA,0.16 kcal/mol
3,GGGACCACGTGGTGGG,-0.04 kcal/mol
4,TCAGACACGTGGTTTT,0.07 kcal/mol
5,TTATCCACGTGTGTAG,-0.08 kcal/mol
6,ACATTCACGTGTTTTG,0.07 kcal/mol
7,TTGTGCACGTGAGTGT,0.1 kcal/mol
8,GTGGGCACGTGAATCA,0.21 kcal/mol
9,CTGAGCACGTGGGTTA,-0.2 kcal/mol
10,TGCGTCACGTGGGTAA,-0.01 kcal/mol
11,AGTGTCACGTGGCGCT,-0.05 kcal/mol
12,GTGTGCACGTGGAGTC,0.02 kcal/mol
13,TGTAGCACGTGCTTAG,-0.14 kcal/mol
14,TTAAACACGTGGAGTT,0.01 kcal/mol
15,ATAGACACGTGAGGGT,0.23 kcal/mol
16,TATTGCACGTGGTGGA,-0.04 kcal/mol
17,TAGGTCACGTGAGGAC,0.23 kcal/mol
18,TGAGGCACGTGCGGTG,-0.14 kcal/mol
19,TTCGACACGTGTTTTT,0.07 kcal/mol
20,AGCTGCACGTGTGTGG,0.08 kcal/mol
21,TGATGCACGTGTAGAT,0.11 kcal/mol
22,TCAGTCACGTGCGGGG,0 kcal/mol
